According to PubChem BioAssay AID463173 (ICCB-Longwood Screening Facility, Harvard Medical School, 2010):
About 1,700 (3.3%) of roughly 52,000 compounds were called active. Cut-off read from the data, not from the text of the source: active = survival mostly below about 52% (no sharp cut-off); inactive = mostly above about 56%. Some of the results follow.

What follows are compounds tested on Wild type (assay: S. aureus survival, RN4220 and DeltatarO strains – OD600, teichoic acid synthesis inhibitors, primary screen (AID 463173)). Details: S. aureus RN4220 wild type/DeltatarO growth, OD600, 18 h, hits give low values, screened at 18.75 µg/mL (by protocol).

SMILES	survival
CC(Sc1nc(=O)cc(N)n1CCc1ccccc1)C(=O)Nc1cccc(Cl)c1 (stereo unspecified)	inactive: 72%
CCC(C(=O)NCCc1cc(OC)ccc1OC)n1nc(C)c2c(C)n(-c3ccccc3)nc2c1=O (stereo unspecified)	inactive: 73%
CCOc1ccccc1NC(=O)Cn1c(=O)n(Cc2cccs2)c(=O)c2cccnc21	inactive: 62%
Fc1ccc(-c2nn(-c3ccc(Cl)cc3)c3c2cnc2ccc(F)cc23)cc1	inactive: 45%
Cc1ccc(S(=O)(=O)c2nnn3c2nc(N2CCOCC2)c2sccc23)cc1C	inactive: 76%
Cc1ccc(Nc2sc(C(=O)c3ccc(F)cc3)c(N)c2S(=O)(=O)c2ccc(C)cc2)cc1	inactive: 136%
COc1ccccc1N1CCN(S(=O)(=O)c2c(C)sc3ncn(CC(=O)Nc4ccc(C)cc4Br)c(=O)c23)CC1	inactive: 75%
COc1ccc(C(=O)Nc2nc3n(n2)C(c2ccc(Cl)cc2)C=C(c2ccccc2)N3)cc1OC (stereo unspecified)	inactive: 75%
Cc1ccc(C)c(CN2C(=O)c3ccccc3S(=O)c3ccc(C(=O)N4CCOCC4)cc32)c1 (stereo unspecified)	inactive: 89%
CC(C)(C)n1nnnc1C(c1cc2cc3c(cc2[nH]c1=O)OCO3)N(Cc1ccccc1)Cc1cccnc1 (stereo unspecified)	inactive: 105%
O=C(Nc1ccccc1)c1ccc(F)cc1	inactive: 110%
Cc1ccc(CNC(=O)C2CCCN(c3ncnc4onc(-c5ccc(F)cc5)c34)C2)cc1 (stereo unspecified)	inactive: 80%
CC1=C(C)CS(=NC(=O)c2ccccc2)N(C(=O)c2ccccc2)C1 (stereo unspecified)	inactive: 119%
O=C(CN1C(=O)CCSc2ccccc21)Nc1ccc(C(F)(F)F)cc1	inactive: 115%
CN1CC(=O)Nc2cc(C(=O)O)ccc21	inactive: 72%
COc1ccc(OC)c(NC(=O)Cn2c(=O)cc(C)c3c(C)nn(-c4cccc(Cl)c4C)c32)c1	inactive: 111%
Cc1ccccc1-c1noc(-c2nnn(-c3ccccc3C)c2N)n1	inactive: 113%
Cc1ccc(-n2cc(C(=O)OCc3ccc(F)c(F)c3)c3ccccc3c2=O)cc1	inactive: 86%
CCOc1ccccc1C(=O)Nc1ccc(S(=O)(=O)N(Cc2ccccc2)c2ccccc2)cc1	inactive: 121%

SMILES	survival
CCOC(=O)c1ccccc1NC(=O)Cn1ccn2nc(-c3ccc(OCC)cc3)cc2c1=O	inactive: 115%
CCOc1ccc(NC(=O)CN2CCN(CC(=O)Nc3ccc(F)cc3F)CC2)cc1	inactive: 73%
CCCN1Cc2cccc(C(=O)Nc3ccccc3C(=O)OC)c2C1=O	inactive: 136%
COc1cc(C(=O)N2CCN(C(=O)COc3cccc(C)c3)CC2)cc(OC)c1OC	inactive: 96%
COc1ccc(N2CCN(C(=O)c3cnn(-c4ccc(OC)cc4)c3C3CCN(C(=O)OC(C)(C)C)CC3)CC2)cc1	inactive: 92%
O=C(Nc1c[nH]c2cc(Cl)ccc2c1=O)N1CCCCC1	inactive: 85%
COc1ccc(Cc2nc3c4cnn(-c5cccc(F)c5)c4ncn3n2)cc1	inactive: 87%
COC(=O)c1c(NC(=O)COc2cccc(C(F)(F)F)c2)sc2c1CCCC2	inactive: 72%
Cc1cccc(C(=O)N(Cc2ccccc2F)C2CCS(=O)(=O)C2)c1 (stereo unspecified)	inactive: 92%
Cc1c(Cl)cccc1-c1ccc(/C=C(\C#N)c2nc3ccccc3[nH]2)o1	active: 8%
CCCCOc1cccc(C(=O)N2CCN(CCc3ccncc3)CC2)c1	inactive: 88%
CCCNC(=O)N1CCCN(S(=O)(=O)c2ccc3c(ccn3CC)c2)CC1	inactive: 71%
CCN(CC)c1ccc(NS(=O)(=O)c2cc(-c3cc(C)no3)ccc2C)c(C)c1	inactive: 127%
Cc1cc(S(=O)(=O)Nc2ccc(O)c(Sc3nc4ccccc4s3)c2)ccc1Cl	active: -2%
CCc1nn(CC(=O)NCCOC)c(=O)c2cc3cc(F)ccc3n12	inactive: 78%
CCOC(=O)c1c(NC(=O)c2ccc(S(=O)(=O)N(CC)CC)cc2)sc2c1CCCCC2	inactive: 80%
O=C(Nc1cccc(C(F)(F)F)c1)Nc1ccc2snnc2c1	active: 29%
Cc1ccc(CCNC(=O)CN(c2ccc(C(C)C)cc2)S(=O)(=O)c2c(C)nn(C)c2C)cc1	inactive: 86%
CCN(CC)C(=O)CSc1nc2cc3c(cc2c(=O)n1CCCC(=O)NCc1ccc(OC)cc1)OCO3	inactive: 82%

SMILES	survival
CCc1ccc(CN(Cc2cn[nH]c2-c2ccc(OC)cc2)C(=O)Nc2ccc(Br)cc2)cc1	inactive: 83%
CN(C)c1ccc(C(CNS(=O)(=O)c2ccc(F)cc2F)N2CCOCC2)cc1 (stereo unspecified)	inactive: 69%
CCOC(=O)c1ccc(Nc2nc3nonc3nc2NCc2ccco2)cc1	inactive: 35%
O=C(NCCC1=CCCCC1)c1ccc2c(c1)N(Cc1ccccc1)C(=O)c1ccccc1S2=O (stereo unspecified)	inactive: 94%
CCn1c(SCC(=O)Nc2c(C)cccc2C)nnc1-c1nonc1NC(C)=O	inactive: 131%
Cc1ccc(C(=O)N2CCCCC2CCN2CCCCC2)cc1 (stereo unspecified)	inactive: 86%
COc1ccc(CCN(Cc2cc3cc(C)ccc3[nH]c2=O)C(=O)N2CCCC2)cc1OC	inactive: 100%
CCOC(=O)c1[nH]c(=O)[nH]c1CSC(=N)N	inactive: 101%
CN(C)C(=O)C1Cc2ccccc2CN1S(=O)(=O)c1ccc(F)cc1 (stereo unspecified)	inactive: 105%
CCS(=O)(=O)c1cccc(C(=O)Nc2ccc(-c3nc4ccccc4s3)c(O)c2)c1	inactive: 87%
Cc1cccc(NC(=O)Cn2c(=O)c3cccn3c3ccccc32)c1C	inactive: 92%
COc1ccc(-c2csc(-c3c(N)c(C(=O)c4ccccc4)n4ccccc34)n2)cc1OC	inactive: 67%
CCNC(=S)N1CCN(c2ccccc2)CC1	inactive: 118%
COc1ccccc1N1CCN(C(=O)CSc2nc3ccccc3nc2Cc2ccc(C)cc2)CC1	inactive: 65%
COc1cc(NS(=O)(=O)c2cc(Br)cc3c2N(C(=O)C2CC2)CC3)cc(OC)c1	inactive: 124%
CCN(CCCNC(=O)c1nn(-c2ccc(OC)c(Cl)c2)c(=O)c2c1c1ccccc1n2C)c1ccccc1	inactive: 84%
O=C(O)c1ccc2c3c(ncnc13)-c1ccccc1C2=O	inactive: 101%
COc1ccc(OC)c(CNC(=O)CSc2c3c(nc4cc(Cl)ccc24)CCCC3)c1	inactive: 80%
